In the supplement of paper PMC4967469:
pIC50: −log10 of the molar value. Lines with a small IC50 respond at low doses; fits outside the tested doses are given as limits. For AUC the same curve is integrated over the 256-fold range of doses and scaled to a fraction; values near 1 show little effect. For some of these results: A top dose marked as inferred is not printed in the source and was worked back from the curve model. For some of these results: An entry number marks a drug with two screens in the source, which often give different values.

Tests used:
Assay in all cases: Viability of human cancer cell lines after 72 h of drug (GDSC screen)
[1] = compound: Cc1c(N)nc([C@H](CC(N)=O)NC[C@H](N)C(N)=O)nc1C(=O)N[C@H](C(=O)N[C@H](C)[C@@H](O)[C@H](C)C(=O)N[C@H](C(=O)NCCc1nc(-c2nc(C(=O)NCCC[S+](C)C)cs2)cs1)[C@@H](C)O)[C@@H](OC1OC(CO)C(O)C(O)C1OC1OC(CO)C(O)C(OC(N)=O)C1O)c1cnc[nH]1 [Bleomycin]
Protocol: (§1)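 Human cancer cell lines in 384-well plates, medium with 10% serum, drug for 72 h over a 256-fold dose range (nine 2-fold or five 4-fold steps up to the top dose). Adherent lines were fixed and stained with the nucleic acid dye Syto60, suspension lines read with resazurin; signal relative to control wells, capped at 0 and 100%. One two-parameter sigmoid per drug and line, fitted in a mixed model over all curves with the slope shared within a line.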

[2] = compound: CCCC(=O)OCc1ccc(OC(=O)/C=C(C)/C=C/C=C(C)/C=C/C2=C(C)CCCC2(C)C)cc1 [VNLG/124]; conditions: top dose 5.12 µM; top dose inferred
Protocol: as §1

[3] = compound: O=S(=O)(O)c1ccc2cc(N=Nc3cc(S(=O)(=O)O)c4cccnc4c3O)ccc2c1 [NSC-87877]; conditions: top dose 16 µM; top dose inferred
Protocol: as §1

[4] = compound: CN(NC(=O)CC(=O)NN(C)C(=S)c1ccccc1)C(=S)c1ccccc1 [Elesclomol]; conditions: top dose 0.2 µM; top dose inferred
Protocol: as §1

[5] = compound: Cc1ccc(NC(=O)c2ccc(CN3CCN(C)CC3)cc2)cc1Nc1nc(-c2cccnc2)cs1 [Masitinib]; conditions: top dose 20 µM
Protocol: as §1

[6] = compound: O=C(Nc1ccc(OC(F)(F)F)cc1)c1sccc1NCc1ccnc2ccccc12 [OSI-930]; conditions: top dose 10.24 µM
Protocol: as §1

[7] = compound: O=C(Nc1cccc(Nc2ncc(Br)c(NCCc3cnc[nH]3)n2)c1)N1CCCC1 [BX-912]; conditions: top dose 10.24 µM; top dose inferred
Protocol: as §1

[8] = compound: CC/C(=C(\c1ccccc1)c1ccc(OCCN(C)C)cc1)c1ccccc1 [Tamoxifen]; conditions: top dose 5 µM
Protocol: as §1

[9] = compound: O=C(/C=C/c1ccc(CN(CCO)CCc2c[nH]c3ccccc23)cc1)NO [LAQ824]; conditions: top dose 1.024 µM; top dose inferred
Protocol: as §1

[10] = top dose 50 µM, screen: GDSC drug entry 1378, top dose inferred
[11] = top dose 64 µM, screen: GDSC drug entry 190

Row | Cell Line | AUC [1, 10] | pIC50 [1, 10] | AUC [1, 11] | pIC50 [1, 11] | AUC [2] | pIC50 [2] | AUC [3] | pIC50 [3] | AUC [4] | pIC50 [4] | AUC [5] | pIC50 [5] | AUC [6] | pIC50 [6] | AUC [7] | pIC50 [7] | AUC [8] | pIC50 [8] | AUC [9] | pIC50 [9]
1 | SK-MEL-24 (melanoma, adherent) | 0.221 | 6.41 | 0.715 | 4.73 | 0.982 | < 5.29 | 0.802 | 5.00 | 0.546 | 7.76 | 0.982 | < 4.70 | 0.979 | < 4.99 | 0.85 | < 4.99 | 0.972 | < 5.30 | 0.667 | 6.68
2 | JHH-6 (liver, adherent) | 0.422 | 5.72 | 0.636 | 5.02 | 0.98 | < 5.29 | 0.855 | 4.88 | 0.603 | 7.62 | 0.986 | < 4.70 | 0.978 | < 4.99 | 0.947 | < 4.99 | 0.952 | < 5.30 | 0.457 | 7.31
3 | FU-OV-1 (ovary, adherent) | 0.862 | < 4.30 | 0.764 | 4.52 | 0.982 | < 5.29 | 0.969 | < 4.80 | 0.623 | 7.52 | 0.886 | < 4.70 | 0.962 | < 4.99 | 0.89 | < 4.99 | 0.968 | < 5.30 | 0.399 | 7.51
4 | NCI-H2342 (lung adenocarcinoma, adherent) | 0.77 | 4.68 | 0.069 | > 6.60 | 0.984 | < 5.29 | 0.979 | < 4.80 | 0.703 | 7.30 | 0.974 | < 4.70 | 0.975 | < 4.99 | 0.972 | < 4.99 | 0.965 | < 5.30 | 0.453 | 7.33
5 | BB49-HNC (head and neck, adherent) | 0.462 | 5.63 | 0.757 | 4.51 | 0.976 | < 5.29 | 0.977 | < 4.80 | 0.825 | 6.72 | 0.975 | < 4.70 | 0.969 | < 4.99 | 0.948 | < 4.99 | 0.859 | < 5.30 | 0.687 | 6.58
6 | YAPC (pancreas, adherent) | 0.672 | 4.97 | 0.978 | < 4.19 | 0.985 | < 5.29 | 0.983 | < 4.80 | 0.737 | 7.15 | 0.959 | < 4.70 | 0.979 | < 4.99 | 0.902 | < 4.99 | 0.972 | < 5.30 | 0.894 | < 5.99
7 | MKN45 (stomach, adherent) | 0.899 | < 4.30 | 0.103 | > 6.60 | 0.977 | < 5.29 | 0.933 | < 4.80 | 0.661 | 7.40 | 0.964 | < 4.70 | 0.975 | < 4.99 | 0.919 | < 4.99 | 0.978 | < 5.30 | 0.582 | 6.94
8 | HMV-II (melanoma, adherent) | 0.767 | 4.65 | 0.154 | 6.60 | 0.982 | < 5.29 | 0.912 | < 4.80 | 0.786 | 6.97 | 0.735 | 5.16 | 0.929 | < 4.99 | 0.942 | < 4.99 | 0.98 | < 5.30 | 0.459 | 7.32
9 | ACHN (kidney, adherent) | 0.099 | > 6.71 | 0.169 | 6.48 | 0.973 | < 5.29 | 0.971 | < 4.80 | 0.957 | < 6.70 | 0.957 | < 4.70 | 0.974 | < 4.99 | 0.912 | < 4.99 | 0.98 | < 5.30 | 0.495 | 7.21
10 | KY821 (leukaemia, suspension) | 0.986 | < 4.30 | 0.934 | < 4.19 | 0.988 | < 5.29 | 0.986 | < 4.80 | 0.991 | < 6.70 | 0.904 | < 4.70 | 0.962 | < 4.99 | 0.949 | < 4.99 | 0.988 | < 5.30 | 0.585 | 6.97
11 | SNU-182 (liver, adherent) | 0.869 | 4.30 | 0.655 | 4.96 | 0.986 | < 5.29 | 0.979 | < 4.80 | 0.503 | 7.90 | 0.943 | < 4.70 | 0.982 | < 4.99 | 0.606 | 5.90 | 0.972 | < 5.30 | 0.555 | 7.04
12 | EFO-27 (ovary, adherent) | 0.678 | 4.95 | 0.351 | 5.86 | 0.978 | < 5.29 | 0.976 | < 4.80 | 0.436 | 8.10 | 0.879 | < 4.70 | 0.978 | < 4.99 | 0.963 | < 4.99 | 0.928 | < 5.30 | 0.306 | 7.80
13 | NCI-H526 (small cell lung carcinoma, suspension) | 0.907 | < 4.30 | 0.3 | 5.95 | 0.989 | < 5.29 | 0.985 | < 4.80 | 0.973 | < 6.70 | 0.889 | < 4.70 | 0.989 | < 4.99 | 0.807 | 5.30 | 0.986 | < 5.30 | 0.382 | 7.51
14 | UM-UC-3 (bladder, adherent) | 0.368 | 5.86 | 0.296 | 5.95 | 0.988 | < 5.29 | 0.988 | < 4.80 | 0.643 | 7.52 | 0.936 | < 4.70 | 0.894 | < 4.99 | 0.885 | 5.00 | 0.985 | < 5.30 | 0.625 | 6.86
15 | NCI-H2227 (small cell lung carcinoma, semi-adherent) | 0.854 | 4.32 | 0.945 | < 4.19 | 0.92 | < 5.29 | 0.958 | < 4.80 | 0.859 | < 6.70 | 0.899 | < 4.70 | 0.977 | < 4.99 | 0.222 | 7.06 | 0.968 | < 5.30 | 0.785 | 6.30
16 | COLO-205 (large intestine, suspension) | 0.934 | < 4.30 | 0.349 | 5.82 | 0.988 | < 5.29 | 0.983 | < 4.80 | 0.976 | < 6.70 | 0.901 | < 4.70 | 0.957 | < 4.99 | 0.724 | 5.56 | 0.983 | < 5.30 | 0.272 | 7.84
17 | PA-TU-8988T (pancreas, adherent) | 0.155 | 6.57 | 0.18 | 6.36 | 0.984 | < 5.29 | 0.955 | < 4.80 | 0.276 | 8.54 | 0.968 | < 4.70 | 0.943 | < 4.99 | 0.929 | < 4.99 | 0.985 | < 5.30 | 0.569 | 7.00
18 | SU-DHL-5 (B-cell lymphoma, suspension) | 0.442 | 5.65 | 0.365 | 5.73 | 0.994 | < 5.29 | 0.991 | < 4.80 | 0.394 | 8.16 | 0.885 | 4.90 | 0.863 | 5.26 | 0.301 | 6.68 | 0.982 | < 5.30 | 0.196 | 7.95
19 | RMG-I (ovary, adherent) | 0.469 | 5.60 | 0.044 | > 6.60 | 0.978 | < 5.29 | 0.896 | < 4.80 | 0.937 | < 6.70 | 0.907 | < 4.70 | 0.96 | < 4.99 | 0.9 | < 4.99 | 0.979 | < 5.30 | 0.645 | 6.76
20 | A4-Fuk (B-cell lymphoma, suspension) | 0.913 | < 4.30 | 0.761 | 4.63 | 0.917 | < 5.29 | 0.984 | < 4.80 | 0.84 | 6.83 | 0.932 | < 4.70 | 0.98 | < 4.99 | 0.818 | 5.22 | 0.982 | < 5.30 | 0.273 | 7.85
21 | MRK-nu-1 (breast, suspension) | 0.896 | < 4.30 | 0.367 | 5.75 | 0.973 | < 5.29 | 0.977 | < 4.80 | 0.979 | < 6.70 | 0.99 | < 4.70 | 0.967 | < 4.99 | 0.99 | < 4.99 | 0.988 | < 5.30 | 0.586 | 6.97
22 | OSC-20 (head and neck, adherent) | 0.418 | 5.75 | 0.607 | 5.08 | 0.974 | < 5.29 | 0.967 | < 4.80 | 0.793 | 6.95 | 0.872 | < 4.70 | 0.968 | < 4.99 | 0.881 | < 4.99 | 0.98 | < 5.30 | 0.519 | 7.14
23 | Hs633T (fibrosarcoma, adherent) | 0.167 | 6.40 | 0.236 | 6.08 | 0.978 | < 5.29 | 0.985 | < 4.80 | 0.426 | 8.09 | 0.892 | 4.80 | 0.947 | < 4.99 | 0.908 | 5.02 | 0.976 | < 5.30 | 0.535 | 7.11
24 | NCI-H209 (small cell lung carcinoma, suspension) | 0.777 | 4.67 | 0.789 | 4.52 | 0.982 | < 5.29 | 0.962 | < 4.80 | 0.91 | < 6.70 | 0.946 | < 4.70 | 0.986 | < 4.99 | 0.728 | 5.52 | 0.977 | < 5.30 | 0.386 | 7.52
25 | BICR22 (head and neck, adherent) | 0.128 | > 6.71 | 0.233 | 6.23 | 0.977 | < 5.29 | 0.983 | < 4.80 | 0.42 | 8.14 | 0.983 | < 4.70 | 0.983 | < 4.99 | 0.964 | < 4.99 | 0.952 | < 5.30 | 0.728 | 6.50
26 | KNS-81-FD (glioma, adherent) | 0.759 | 4.63 | 0.87 | < 4.19 | 0.977 | < 5.29 | 0.981 | < 4.80 | 0.506 | 7.89 | 0.866 | < 4.70 | 0.954 | < 4.99 | 0.923 | < 4.99 | 0.964 | < 5.30 | 0.763 | 6.30
